# From the supplement of paper PMC8728848
# Some of the results follow.
# B1: PX9937A-bvu-521-23-521 (Bacteroides vulgatus) (protein)
# chain: LDLAPEDYYGAGNFWKEASQPKAFMLGLHAQLRSYYDMFYTLGELRGGTQRVGTSSLNTSLNYADIRSQNISEDIPGISNWNGLYSPIMQVNHFIQEVENGCTFLDDATRSRYLGQAYGMRALYYFMLYRTFGGVPLITKVDILDGKPSADKFYVERATPEATMEFIKADINKSENYFGNNTSFDAYDWSRYATLMLKAEIYMWAAKVSITGFTATGATDLQTAKTALSGIIGHFELMDNFASIFSCDNKKNTEIIFAMPFIEGEASNDGGRFLYQDAVFLGQAYGRNGKVIEKDTLNLKGTGGVFRDEYTEDFWKTFKEGDSRRDATFMEYYMKNDNGTLSEFGCVMKKRIGTINSNDNRIYISDIPVYRYADALLMMAEIENGLNNPCASYINEVRKRAYGDTFEENKYTEGSYAENELAILQERDKEFVSEGKRWFDVLRMHDASGRSLVFSANANYPGTNPILGTEEAYKMLWPVNIGTLNVNPLLTQTPGYGKK
# How the values were obtained:
# Experiment in all cases: glycan array binding signal (z-score within array); higher = stronger binding
# Conditions in all cases: glycan notation: IUPAC condensed, linker removed
# [1] = target: Gal(b1-3)GlcNAc(b1-6)[Gal(b1-3)]GalNAc
# How it was run: (§1)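 Glycan array data came from 3228 arrays in the Consortium for Functional Glycomics database, and only arrays with an available protein sequence were kept. Glycan names were put into IUPAC-condensed notation, and columns mapping to the same glycan were averaged. The binding signal is a within-array Z-score, averaged across arrays of one protein sequence run at different concentrations or buffers and across linkers. A negative Z-score can be read as non-binding.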
# Gal(b1-3)GlcNAc6S = target: Gal(b1-3)GlcNAc6S
# How it was run: as §1
# [2] = target: Gal(b1-3)[Fuc(a1-4)]GlcNAc
# How it was run: as §1
# [3] = target: Gal(b1-3)[Fuc(a1-4)]GlcNAc(b1-2)Man
# How it was run: as §1
# [4] = target: Gal(b1-3)[Fuc(a1-4)]GlcNAc(b1-2)Man(a1-3)[Gal(b1-3)[Fuc(a1-4)]GlcNAc(b1-2)Man(a1-6)]Man(b1-4)GlcNAc(b1-4)[Fuc(a1-6)]GlcNAc
# How it was run: as §1
# [5] = target: Gal(b1-3)[Fuc(a1-4)]GlcNAc(b1-3)Gal(b1-3)[Fuc(a1-4)]GlcNAc
# How it was run: as §1
# [6] = target: Gal(b1-3)[Fuc(a1-4)]GlcNAc(b1-3)Gal(b1-4)[Fuc(a1-3)]GlcNAc
# How it was run: as §1
# [7] = target: Gal(b1-3)[Fuc(a1-4)]GlcNAc(b1-6)GalNAc
# How it was run: as §1
# [8] = target: Gal(b1-3)[GlcNAc(b1-6)]GalNAc
# How it was run: as §1
# [9] = target: Gal(b1-3)[Neu5Ac(a2-6)]GalNAc
# How it was run: as §1
# [10] = target: Gal(b1-3)[Neu5Ac(a2-6)]GlcNAc(b1-4)Gal(b1-4)Glc
# How it was run: as §1
# [11] = target: Gal(b1-3)[Neu5Ac(b2-6)]GalNAc
# How it was run: as §1
# Gal(b1-4)Gal = target: Gal(b1-4)Gal
# How it was run: as §1
# [12] = target: Gal(b1-4)GalNAc(a1-3)[Fuc(a1-2)]Gal(b1-4)GlcNAc
# How it was run: as §1
# [13] = target: Gal(b1-4)GalNAc(b1-3)[Fuc(a1-2)]Gal(b1-4)GlcNAc
# How it was run: as §1
# Gal(b1-4)Glc = target: Gal(b1-4)Glc
# How it was run: as §1
# Gal(b1-4)Glc6S = target: Gal(b1-4)Glc6S
# How it was run: as §1
# Gal(b1-4)GlcNAc = target: Gal(b1-4)GlcNAc
# How it was run: as §1
# [14] = target: Gal(b1-4)GlcNAc(a1-6)Gal(b1-4)GlcNAc
# How it was run: as §1
# Gal(b1-4)GlcNAc(b1-2)Man = target: Gal(b1-4)GlcNAc(b1-2)Man
# How it was run: as §1
# [15] = target: Gal(b1-4)GlcNAc(b1-2)Man(a1-3)Man(b1-4)GlcNAc(b1-4)GlcNAc
# How it was run: as §1
# [16] = target: Gal(b1-4)GlcNAc(b1-2)Man(a1-3)[Gal(b1-4)GlcNAc(b1-2)Man(a1-6)]Man(b1-4)GlcNAc(b1-4)GlcNAc
# How it was run: as §1
# [17] = target: Gal(b1-4)GlcNAc(b1-2)Man(a1-3)[Gal(b1-4)GlcNAc(b1-2)Man(a1-6)]Man(b1-4)GlcNAc(b1-4)[Fuc(a1-6)]GlcNAc
# How it was run: as §1
# [18] = target: Gal(b1-4)GlcNAc(b1-2)Man(a1-3)[Gal(b1-4)GlcNAc(b1-2)Man(a1-6)][Gal(b1-4)GlcNAc(b1-4)]Man(b1-4)GlcNAc(b1-4)[Fuc(a1-6)]GlcNAc
# How it was run: as §1
# [19] = target: Gal(b1-4)GlcNAc(b1-2)Man(a1-3)[Gal(b1-4)GlcNAc(b1-2)Man(a1-6)][GlcNAc(b1-4)]Man(b1-4)GlcNAc(b1-4)[Fuc(a1-6)]GlcNAc
# How it was run: as §1
# [20] = target: Gal(b1-4)GlcNAc(b1-2)Man(a1-3)[GlcNAc(b1-2)Man(a1-6)]Man(b1-4)GlcNAc(b1-4)GlcNAc
# How it was run: as §1
# [21] = target: Gal(b1-4)GlcNAc(b1-2)Man(a1-3)[GlcNAc(b1-4)][Gal(b1-4)GlcNAc(b1-2)Man(a1-6)]Man(b1-4)GlcNAc(b1-4)GlcNAc
# How it was run: as §1
# [22] = target: Gal(b1-4)GlcNAc(b1-2)Man(a1-3)[Man(a1-6)]Man(b1-4)GlcNAc(b1-4)GlcNAc
# How it was run: as §1
# [23] = target: Gal(b1-4)GlcNAc(b1-2)Man(a1-6)Man(b1-4)GlcNAc(b1-4)GlcNAc
# How it was run: as §1
# [24] = target: Gal(b1-4)GlcNAc(b1-2)Man(a1-6)[GlcNAc(b1-2)Man(a1-3)]Man(b1-4)GlcNAc(b1-4)GlcNAc
# How it was run: as §1
# [25] = target: Gal(b1-4)GlcNAc(b1-2)Man(a1-6)[Man(a1-3)]Man(b1-4)GlcNAc(b1-4)GlcNAc
# How it was run: as §1
# [26] = target: Gal(b1-4)GlcNAc(b1-2)[Gal(b1-4)GlcNAc(b1-4)]Man(a1-3)[Gal(b1-4)GlcNAc(b1-2)Man(a1-6)]Man(b1-4)GlcNAc(b1-4)GlcNAc
# How it was run: as §1
# [27] = target: Gal(b1-4)GlcNAc(b1-2)[Gal(b1-4)GlcNAc(b1-4)]Man(a1-3)[Gal(b1-4)GlcNAc(b1-2)[Gal(b1-4)GlcNAc(b1-6)]Man(a1-6)]Man(b1-4)GlcNAc(b1-4)GlcNAc
# How it was run: as §1
# [28] = target: Gal(b1-4)GlcNAc(b1-2)[Gal(b1-4)GlcNAc(b1-4)]Man(a1-3)[GlcNAc(b1-4)][Gal(b1-4)GlcNAc(b1-2)Man(a1-6)]Man(b1-4)GlcNAc(b1-4)GlcNAc
# How it was run: as §1
# [29] = target: Gal(b1-4)GlcNAc(b1-2)[Gal(b1-4)GlcNAc(b1-4)]Man(a1-3)[GlcNAc(b1-4)][Gal(b1-4)GlcNAc(b1-2)[Gal(b1-4)GlcNAc(b1-6)]Man(a1-6)]Man(b1-4)GlcNAc(b1-4)GlcNAc
# How it was run: as §1
# [30] = target: Gal(b1-4)GlcNAc(b1-2)[Gal(b1-4)GlcNAc(b1-6)]Man(a1-6)[Gal(b1-4)GlcNAc(b1-2)Man(a1-3)]Man(b1-4)GlcNAc(b1-4)GlcNAc
# How it was run: as §1
# [31] = target: Gal(b1-4)GlcNAc(b1-2)[Gal(b1-4)GlcNAc(b1-6)]Man(a1-6)[Gal(b1-4)GlcNAc(b1-2)Man(a1-3)]Man(b1-4)GlcNAc(b1-4)[Fuc(a1-6)]GlcNAc
# How it was run: as §1
binder,measurement,setting,value
B1,glycan array binding signal (z-score),[1],-0.301
same,glycan array binding signal (z-score),Gal(b1-3)GlcNAc6S,0.146
same,glycan array binding signal (z-score),[2],-0.408
same,glycan array binding signal (z-score),[3],-0.18
same,glycan array binding signal (z-score),[4],0.172
same,glycan array binding signal (z-score),[5],-0.698
same,glycan array binding signal (z-score),[6],-0.026
same,glycan array binding signal (z-score),[7],-0.248
same,glycan array binding signal (z-score),[8],-0.383
same,glycan array binding signal (z-score),[9],-0.487
same,glycan array binding signal (z-score),[10],-0.564
same,glycan array binding signal (z-score),[11],0.015
same,glycan array binding signal (z-score),Gal(b1-4)Gal,-0.373
same,glycan array binding signal (z-score),[12],-0.429
same,glycan array binding signal (z-score),[13],-0.328
same,glycan array binding signal (z-score),Gal(b1-4)Glc,-0.389
same,glycan array binding signal (z-score),Gal(b1-4)Glc6S,-0.351
same,glycan array binding signal (z-score),Gal(b1-4)GlcNAc,0.599
same,glycan array binding signal (z-score),[14],0.441
same,glycan array binding signal (z-score),Gal(b1-4)GlcNAc(b1-2)Man,-0.059
same,glycan array binding signal (z-score),[15],0.066
same,glycan array binding signal (z-score),[16],-0.294
same,glycan array binding signal (z-score),[17],0.343
same,glycan array binding signal (z-score),[18],0.144
same,glycan array binding signal (z-score),[19],-0.396
same,glycan array binding signal (z-score),[20],-0.327
same,glycan array binding signal (z-score),[21],-0.466
same,glycan array binding signal (z-score),[22],0.38
same,glycan array binding signal (z-score),[23],-0.439
same,glycan array binding signal (z-score),[24],-0.09
same,glycan array binding signal (z-score),[25],-0.508
same,glycan array binding signal (z-score),[26],-0.553
same,glycan array binding signal (z-score),[27],-0.374
same,glycan array binding signal (z-score),[28],-0.678
same,glycan array binding signal (z-score),[29],-0.312
same,glycan array binding signal (z-score),[30],4.26
same,glycan array binding signal (z-score),[31],0.374
